Some of the results follow. At the low end of the ranking the order means little.
These sequences were tested against T1, ETS1 (UniProt P14921) (assay: custom PBM). Settings: custom protein-binding microarray; buffer, salt, pH and temperature not stated; high values mean tight binding; double strand, one strand shown.
T1 sequence: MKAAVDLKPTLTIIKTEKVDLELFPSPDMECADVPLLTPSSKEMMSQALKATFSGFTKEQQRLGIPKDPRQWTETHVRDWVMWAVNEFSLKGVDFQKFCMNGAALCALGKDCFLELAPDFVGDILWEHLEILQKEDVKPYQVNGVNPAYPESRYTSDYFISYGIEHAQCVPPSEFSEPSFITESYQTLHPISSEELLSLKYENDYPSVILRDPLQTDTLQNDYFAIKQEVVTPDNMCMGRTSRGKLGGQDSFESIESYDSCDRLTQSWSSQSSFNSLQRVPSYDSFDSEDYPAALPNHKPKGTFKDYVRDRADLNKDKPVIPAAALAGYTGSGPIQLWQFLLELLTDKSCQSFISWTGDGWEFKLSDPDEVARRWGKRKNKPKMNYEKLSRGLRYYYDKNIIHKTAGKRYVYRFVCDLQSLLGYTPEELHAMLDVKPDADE

Sequence | binding signal (log fluorescence intensity)
CAGCATAGGACTTCTTCCCTGAAGCAATTGATAACGGTCTTGATTCGCTTGACGCTGCTG | 8.34
CGGAAATGTCGTAAACGTCGGATATCCGGTTCTTCTGTCTTGATTCGCTTGACGCTGCTG | 12.1
CACAATTTTTACAGTAATGTAGCACGCGTAACTCCTGTCTTGATTCGCTTGACGCTGCTG | 8.15
GGAAAAAGGCCCAGGGTAACACCGGAAGCGGGCTTAGTCTTGATTCGCTTGACGCTGCTG | 10.8
GTGTAAAGGATCCCATCCAACACACGTGTTAAAATGGTCTTGATTCGCTTGACGCTGCTG | 8.15
GGTAAAAGGCCCAGGGTAACACCGGAAGTGGGCTTAGTCTTGATTCGCTTGACGCTGCTG | 11.9
CAGCATAAGACTTCTTCCCTGAAGCAATTGATAACCGTCTTGATTCGCTTGACGCTGCTG | 8.27
GGAAAAAGGTCCAGGGTAACACCGGAAGTGGGCTTAGTCTTGATTCGCTTGACGCTGCTG | 12
TACTGACTTATATATGCGAATCCACATGAATAGACCGTCTTGATTCGCTTGACGCTGCTG | 8.2
CGGAGGTGTCGTAAACGTCGGATATCCGGTTCTTCTGTCTTGATTCGCTTGACGCTGCTG | 11.7
CGGAAGTGTCGTAGACGTCGGATATCCGGTTCTTCTGTCTTGATTCGCTTGACGCTGCTG | 11.7
CACTGACTTATATATGCGAATGCACATGAATAGACCGTCTTGATTCGCTTGACGCTGCTG | 8.35
TAGTGACTTATATATGCGAATGCACATGAATAGACCGTCTTGATTCGCTTGACGCTGCTG | 8.36
TAAAGGGAAGACGGTTGTGATAGTTCCGGGTATTAAGTCTTGATTCGCTTGACGCTGCTG | 8.58
CCCAATTTTTACAGTAATGTAGCACGCGTAACTCCTGTCTTGATTCGCTTGACGCTGCTG | 8.1
GCTGCTGCGGAGCATACCCCACCGGATGTGACCCCGGTCTTGATTCGCTTGACGCTGCTG | 10.2
GATTAATTTCTGCCCTTATTCGCACGTGCCATAACCGTCTTGATTCGCTTGACGCTGCTG | 8.22
TAAAGGGAAGACGGTTGTGGTAGTTTCGGGTATTAAGTCTTGATTCGCTTGACGCTGCTG | 8.03
TAAAGGGAAGACGGTTGTGGTAGTTCCGGGCATTAAGTCTTGATTCGCTTGACGCTGCTG | 8.59
TACTGACTTATATATGCGAATGCACATAAATAGACCGTCTTGATTCGCTTGACGCTGCTG | 8.11
TACTGAGTTATATATGCGAATGCACATGAATAGACCGTCTTGATTCGCTTGACGCTGCTG | 8.26
TGTCGGGTATGGGAATGTAGATCACGTGAATGAAAAGTCTTGATTCGCTTGACGCTGCTG | 8.09
GATTAATTTCTGCCCTTATTCGCACGTGCCGTAACAGTCTTGATTCGCTTGACGCTGCTG | 8.34
